Article PMC7977458, “The CK1δ/ε-AES axis regulates tumorigenesis and metastasis in colorectal cancer” (Theranostics, 2021)
Residue numbers refer to the chain shown, from its start. Numbers in names are those of the source. No constants are given. Whether binding was seen depends on the method and setting. In cells and extracts the contact can be indirect. Some entries that bind do so weakly or less than the wild type. For part of these data: Tags and fused reporters may be left off the sequences shown.

Amino acid sequences for entries named in this document (tags omitted). A change or cut given only in a name is not applied to a line headed by its entry.
UniProt Q13309: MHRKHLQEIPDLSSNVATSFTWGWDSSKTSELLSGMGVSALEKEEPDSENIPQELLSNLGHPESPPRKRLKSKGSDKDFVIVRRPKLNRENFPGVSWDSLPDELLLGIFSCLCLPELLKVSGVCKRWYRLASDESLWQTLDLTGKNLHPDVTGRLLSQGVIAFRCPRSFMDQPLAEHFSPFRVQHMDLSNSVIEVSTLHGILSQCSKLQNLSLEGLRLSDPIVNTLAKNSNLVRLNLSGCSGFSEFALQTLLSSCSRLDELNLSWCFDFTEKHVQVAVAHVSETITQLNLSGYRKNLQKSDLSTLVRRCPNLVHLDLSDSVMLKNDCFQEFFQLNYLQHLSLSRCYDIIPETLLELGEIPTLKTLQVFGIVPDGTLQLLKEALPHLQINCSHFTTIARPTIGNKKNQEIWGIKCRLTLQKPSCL
UniProt P48729: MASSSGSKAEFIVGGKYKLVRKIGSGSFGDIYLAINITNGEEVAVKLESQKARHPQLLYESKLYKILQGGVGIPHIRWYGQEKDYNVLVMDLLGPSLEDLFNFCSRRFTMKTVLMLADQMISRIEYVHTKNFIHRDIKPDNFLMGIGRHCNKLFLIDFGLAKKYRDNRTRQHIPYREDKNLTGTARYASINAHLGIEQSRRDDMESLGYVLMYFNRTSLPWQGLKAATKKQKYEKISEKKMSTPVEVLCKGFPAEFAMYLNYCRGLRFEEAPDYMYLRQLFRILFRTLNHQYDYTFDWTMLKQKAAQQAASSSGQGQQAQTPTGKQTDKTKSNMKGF
UniProt Q9HCP0: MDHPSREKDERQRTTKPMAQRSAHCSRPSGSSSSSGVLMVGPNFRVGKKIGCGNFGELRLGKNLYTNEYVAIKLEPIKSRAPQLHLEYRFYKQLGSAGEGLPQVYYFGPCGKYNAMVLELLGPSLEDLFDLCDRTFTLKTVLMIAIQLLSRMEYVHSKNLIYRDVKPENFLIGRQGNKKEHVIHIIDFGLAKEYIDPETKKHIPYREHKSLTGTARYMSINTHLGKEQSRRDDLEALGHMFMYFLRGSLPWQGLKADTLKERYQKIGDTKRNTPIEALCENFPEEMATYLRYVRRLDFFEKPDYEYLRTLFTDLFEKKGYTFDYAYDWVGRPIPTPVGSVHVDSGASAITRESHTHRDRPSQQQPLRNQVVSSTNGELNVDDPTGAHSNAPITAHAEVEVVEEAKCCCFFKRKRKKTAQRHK
UniProt P49674: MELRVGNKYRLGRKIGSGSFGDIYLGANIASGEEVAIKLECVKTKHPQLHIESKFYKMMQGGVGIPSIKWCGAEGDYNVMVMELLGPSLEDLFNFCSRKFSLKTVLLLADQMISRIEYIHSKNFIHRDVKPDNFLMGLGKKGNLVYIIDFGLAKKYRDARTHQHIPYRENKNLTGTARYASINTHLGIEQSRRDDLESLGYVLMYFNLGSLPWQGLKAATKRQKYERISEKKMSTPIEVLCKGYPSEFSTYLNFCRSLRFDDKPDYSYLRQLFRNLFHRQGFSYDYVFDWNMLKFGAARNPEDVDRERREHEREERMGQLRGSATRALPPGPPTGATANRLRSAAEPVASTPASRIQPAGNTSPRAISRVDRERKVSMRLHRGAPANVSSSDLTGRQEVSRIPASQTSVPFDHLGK
UniProt P48730: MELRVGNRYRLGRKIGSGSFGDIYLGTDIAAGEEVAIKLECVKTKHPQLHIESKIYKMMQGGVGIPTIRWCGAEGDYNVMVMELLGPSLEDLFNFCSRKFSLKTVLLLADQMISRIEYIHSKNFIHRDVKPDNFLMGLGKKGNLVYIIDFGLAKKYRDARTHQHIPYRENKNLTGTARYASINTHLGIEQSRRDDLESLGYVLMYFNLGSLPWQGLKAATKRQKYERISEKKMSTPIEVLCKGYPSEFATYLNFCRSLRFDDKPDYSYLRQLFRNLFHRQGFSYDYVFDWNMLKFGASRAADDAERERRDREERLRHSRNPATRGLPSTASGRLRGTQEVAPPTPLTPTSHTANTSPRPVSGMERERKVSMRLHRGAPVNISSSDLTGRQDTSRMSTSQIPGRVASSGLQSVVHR

T1: AES (endogenous) (human (endogenous in HCT116)) (UniProt Q08117)
T1 sequence: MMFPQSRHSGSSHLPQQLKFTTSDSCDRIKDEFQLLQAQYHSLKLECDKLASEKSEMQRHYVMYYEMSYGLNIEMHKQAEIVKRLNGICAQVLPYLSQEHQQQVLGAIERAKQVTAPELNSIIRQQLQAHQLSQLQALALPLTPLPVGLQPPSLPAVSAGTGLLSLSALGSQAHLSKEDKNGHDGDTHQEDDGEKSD

B1: AES-V5 (V5-tagged wild-type amino-terminal enhancer of split) (protein, UniProt Q08117 1-197)
chain: T1 sequence
B2: GFP tagged wild-type AES, full length (protein, UniProt Q08117 1-197)
chain: T1 sequence
B3: AES-V5 S121A mutant (protein, UniProt Q08117 1-197)
chain: T1 sequence with S121A

Columns and labels:
[1] = target: T1, AES (endogenous) (human (endogenous in HCT116)); test: co-IP; endogenous proteins; HCT116 lysate (HT29 too in Figure 4B); IP with anti-AES antibody or IgG and protein A/G agarose at 4 °C; immunoblot
[2] = target: Flag-SKP2 (Flag-tagged S phase kinase-associated protein 2) (UniProt Q13309); test: condition: only cells depleted of CK1δ/ε by shRNA lentivirus; co-IP; HEK293T cells infected with shCK1δ/ε-1 or shCK1δ/ε-2 lentivirus, then transfected; IP with anti-Flag M2 beads
[3] = target: Flag-SKP2 (Flag-tagged S phase kinase-associated protein 2) (UniProt Q13309); test: condition: only cells treated with 0.25 μM IC261 or 2 μM PF670462 for 24 h; co-IP; HEK293T cells transfected, then treated with 0.25 μM IC261 or 2 μM PF670462 for 24 h; IP with anti-Flag M2 beads
Flag-CK1α (human) = Flag-CK1α (human) (UniProt P48729); test: co-IP; HEK293T cells co-transfected; lysis in 20 mM Tris-HCl pH7.4, 150 mM NaCl, 1 mM EDTA, 1 mM EGTA, 1% Triton X-100; IP with anti-Flag M2 affinity gel or anti-V5 agarose at 4 °C; immunoblot; AES-V5 with Flag-SKP2 also tested with co-expressed kinase-dead dominant negative CK1δ/ε (interaction dramatically reduced)
[4] = target: Flag-SKP2 (Flag-tagged S phase kinase-associated protein 2) (UniProt Q13309); test: as above
Flag-CK1γ1 (human) = Flag-CK1γ1 (human) (UniProt Q9HCP0); test: as above
Flag-CK1ε (human) = Flag-CK1ε (human) (UniProt P49674); test: as above
Flag-CK1δ (human) = Flag-CK1δ (human) (UniProt P48730); test: as above

Row | binding [2] | binding [3] | Molecule | binding [1] | binding (Flag-CK1α (human)) | binding [4] | binding (Flag-CK1γ1 (human)) | binding (Flag-CK1ε (human)) | binding (Flag-CK1δ (human))
1 |  |  | CK1ε (endogenous) (from UniProt P49674 1-416) (enzyme) | binds |  |  |  |  | 
2 | no binding | no binding | B1 |  | no binding | binds | no binding | binds | binds
3 |  |  | B2 |  |  | binds |  | binds | binds
4 |  |  | B3 |  |  | no binding |  |  | 
